Measurements reported in PubChem BioAssay AID588795 (National Center for Advancing Translational Sciences (NCATS), 2011).
Screen size: about 390,000 compounds; about 1,400 (0.36%) were called active. Inconclusive means that the source gave no clear call. Such entries were picked first, then a sample of the others. Calls follow the shape of the dose curve; as a rule, active = well fitted inhibition curve with a large enough effect; inconclusive = small, poorly fitted or top-dose-only effect; inactive = no such curve, though single readings can be large or run the other way. Potencies beside an inconclusive call are fits to weak or partial responses and may not hold up.

Each molecule was assayed against Flap endonuclease 1 (Homo sapiens) (UniProt P39748) (assay: qHTS Assay for the Inhibitors of Human Flap endonuclease 1 (FEN1).). Settings: Recombinant FEN1 flap cleavage, fluorescence, 15 min; series mostly up to 114 µM; activity change, negative = inhibition: at the top concentration.
UniProt P39748, sequence (P39748 whole entry, looked up): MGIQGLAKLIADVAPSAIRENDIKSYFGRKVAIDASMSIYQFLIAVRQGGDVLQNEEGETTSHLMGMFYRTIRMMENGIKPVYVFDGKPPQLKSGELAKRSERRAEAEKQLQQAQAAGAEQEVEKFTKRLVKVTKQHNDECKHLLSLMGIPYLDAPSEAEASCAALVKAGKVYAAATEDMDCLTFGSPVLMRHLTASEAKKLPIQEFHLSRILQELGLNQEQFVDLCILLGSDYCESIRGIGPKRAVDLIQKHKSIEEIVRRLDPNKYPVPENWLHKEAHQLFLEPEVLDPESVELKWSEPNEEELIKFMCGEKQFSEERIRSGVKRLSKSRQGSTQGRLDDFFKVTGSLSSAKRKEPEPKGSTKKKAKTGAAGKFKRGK
Outline: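 FEN1 at 10 nM, compound pretreatment for 15 min (room temperature), 50 nM final substrate to initiate; endpoint reads at 0 and 15 min; DMSO-only plates used as vehicle background.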
% is scaled to controls: 0 for no effect and ±100 for the full control effect; potency is read from the fitted curve at half-maximal effect; tags tell the direction and shape of the fitted curve.
Also: nearly all actives have a fitted effect of over 65% in size.

Row | SMILES | activity change, negative = inhibition | Potency
1 | Cc1ccc(C)c(N2CCN(S(=O)(=O)c3ccc4[nH]c(=O)ccc4c3)CC2)c1 | inactive: 2.16% | –
2 | CSc1nc(SCC(N)=O)c2c3c(sc2n1)CN(C)CC3 | – | active: 50.1 µM
3 | COc1ccc(C2Nc3ccccc3C(=O)N2c2ccc(F)cc2)cc1COc1ccc(NC(C)=O)cc1 (stereo not drawn) | inactive: 7.05% | –
4 | Cc1sc2ncn(CC(=O)N3CCN(c4ccc(F)cc4)CC3)c(=O)c2c1S(=O)(=O)N1CCCCC1 | inactive: -3.64% | –
5 | CC[N+](CC)(CC)c1ccc(/C=C/c2ccnc3ccccc23)cc1 | – | inconclusive: 50.1 µM [inhibitor, partial curve]
6 | Cc1cc(C)nc(NC(=O)CSc2nn(-c3ccccc3)c(=S)s2)n1 | – | inconclusive: 44.7 µM [inhibitor, partial curve]
7 | CCc1ccc(NC(=O)C(C)n2nnc3sc(-c4ccccc4)cc3c2=O)cc1 (stereo not drawn) | – | inconclusive: 89.1 µM [inhibitor, single point]
8 | COc1cc(OC)c(-c2nn3c(-c4n[nH]c5c4CCC5)nnc3s2)cc1OC | – | inactive
9 | Cc1ccc(Cl)cc1NC(=O)Cn1c(=O)n(CCCS(=O)(=O)C2CCCCC2)c(=O)c2ccccc21 | inactive: -9.52% | –
10 | Cc1ccc(S(=O)(=O)Nc2ccc3c(c2)CC(=O)N([C@H](C)CO)C[C@@H](C)[C@H](CN(C)Cc2ccc(-c4ccccc4)cc2)O3)cc1 | – | inconclusive: 89.1 µM [inhibitor, partial curve, poor fit]
11 | O=C(O)c1ccc(COc2ccccc2/C=C2\NC(=O)N(Cc3ccccc3)C2=O)cc1 | – | inconclusive: 79.4 µM [inhibitor, partial curve, poor fit]
12 | COc1cc(/C=C2\CCc3c2nc2ccccc2c3C(=O)O)cc(OC)c1OC | – | active: 50.1 µM
13 | COc1cccc(/C=C2\Oc3cc(OCC(=O)N4Cc5ccccc5C[C@H]4C(=O)O)ccc3C2=O)c1 | – | inconclusive: 44.7 µM [inhibitor, partial curve]
14 | Cn1ccc2cc3c(cc21)CCN3C(=O)Nc1cccnc1 | – | inconclusive: 9.47 µM [inhibitor, partial curve]
15 | c1ccc(-c2noc(-c3ccc4c(c3)OCO4)n2)nc1 | inactive: -2.02% | –
16 | COc1ccc(S(=O)(=O)Nc2cccc3cccnc23)cc1 | – | inconclusive: 56.2 µM [inhibitor, partial curve, poor fit]
17 | CC(C)(C)OC(=O)NCCCCCNC(=O)c1[nH]cnc1C(=O)Nc1ccc(Cl)cc1 | – | inconclusive: 79.4 µM [inhibitor, single point]
18 | Nc1ccc2nc(-c3cccc(-c4nc5ccc(N)cc5[nH]4)n3)[nH]c2c1 | – | inconclusive: 5.01 µM [inhibitor, full curve, poor fit]
